This is an account of results in the supplement of paper PMC10369915.

Some of the results follow. No stated cut-off is given here; in the data, active = 3.2 or more and inactive = the rest. Most of these values are background signal.

Some targets named below: SHP2 C-SH2 domain E139D; SHP2 N-SH2 domain L43F; SHP2 N-SH2 domain T42A; SHP2 N-SH2 domain T52S.
What all share (experiment): enrichment score (SH2-bound / input frequency) (ratio); bacterial display of known human phosphotyrosine sites (pTyr-Var adds point mutants) read by sequencing; higher = stronger binding; tyrosines were phosphorylated by kinases first
Common to all, as to conditions: peptide library: pTyr-Var

The target of assay [1] is SHP2 C-SH2 domain wild-type.
The target in assay [2] is SHP2 N-SH2 domain wild-type.
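Further: displayed peptides selected on beads carrying the immobilized SH2 domain, with library peptides lacking any tyrosine serving as negative controls.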

As for FGSLLYKFAFK [FANCD2_Y458_YF], the enrichment score in the assay with SHP2 C-SH2 domain E139D is inactive: 0.333; in assay [1] it was inactive: 0.749; with SHP2 N-SH2 domain L43F it was inactive: 0.395; in the assay with SHP2 N-SH2 domain T42A it was inactive: 0.27; in the assay with SHP2 N-SH2 domain T52S it was inactive: 0.298; in assay [2], inactive: 0.736.

Regarding DEFLEYRRIVG [FAM221A_Y20_YF], the enrichment score with SHP2 C-SH2 domain E139D is inactive: 0.754; in assay [1] it was inactive: 0.661; with SHP2 N-SH2 domain L43F it was inactive: 0.875; with SHP2 N-SH2 domain T42A, inactive: 0.696; with SHP2 N-SH2 domain T52S, inactive: 0.672; in assay [2], inactive: 0.884.

On to ALVLQYLRVPL [F9_Y371], for which the enrichment score in the assay with SHP2 C-SH2 domain E139D is active: 3.49; in assay [1], active: 3.35; with SHP2 N-SH2 domain L43F it was active: 3.3; with SHP2 N-SH2 domain T42A, inactive: 2.7; with SHP2 N-SH2 domain T52S, inactive: 2.83; in assay [2], active: 3.22.

With AAVDEYLEYRR [FAM221A_Y17], the enrichment score in the assay with SHP2 C-SH2 domain E139D is inactive: 0.962; in assay [1], inactive: 0.681; with SHP2 N-SH2 domain L43F, inactive: 0.964; with SHP2 N-SH2 domain T42A it was inactive: 0.582; in the assay with SHP2 N-SH2 domain T52S it was inactive: 0.695; in assay [2] it was inactive: 0.854.

Take SSREGYVSHHN [FAM83B_Y433]: the enrichment score in the assay with SHP2 C-SH2 domain E139D is inactive: 1.01; in assay [1], inactive: 0.694; with SHP2 N-SH2 domain L43F, inactive: 0.732; in the assay with SHP2 N-SH2 domain T42A it was inactive: 0.655; in the assay with SHP2 N-SH2 domain T52S it was inactive: 0.783; in assay [2], inactive: 0.521.

On to LSQQVYRVNLS [FAT4_Y480_F475L], for which the enrichment score with SHP2 C-SH2 domain E139D was inactive: 0.989; in assay [1], inactive: 0.983; in the assay with SHP2 N-SH2 domain L43F, inactive: 1.14; with SHP2 N-SH2 domain T42A, inactive: 0.756; with SHP2 N-SH2 domain T52S, inactive: 1.01; in assay [2], inactive: 1.

In the case of GEAEQYVGGGG [FAT4_Y4980], the enrichment score was inactive: 0.453 in the assay with SHP2 C-SH2 domain E139D; inactive: 0.491 in assay [1]; inactive: 0.64 with SHP2 N-SH2 domain L43F; inactive: 0.539 with SHP2 N-SH2 domain T42A; inactive: 0.558 with SHP2 N-SH2 domain T52S; inactive: 0.61 in assay [2].

MTFQNYRQALF [FAM20C_Y279_G280R]: the enrichment score with SHP2 C-SH2 domain E139D is inactive: 1.01; in assay [1] it was inactive: 0.88; with SHP2 N-SH2 domain L43F it was inactive: 1.12; with SHP2 N-SH2 domain T42A it was inactive: 0.925; in the assay with SHP2 N-SH2 domain T52S, inactive: 1.02; in assay [2], inactive: 0.874.

For the molecule FGSRLYKYAFK [FANCD2_Y458_L456R], the enrichment score was inactive: 0.501 in the assay with SHP2 C-SH2 domain E139D; inactive: 0.522 in assay [1]; inactive: 0.469 with SHP2 N-SH2 domain L43F; inactive: 0.438 with SHP2 N-SH2 domain T42A; inactive: 0.508 with SHP2 N-SH2 domain T52S; inactive: 0.609 in assay [2].

Consider FQNSLYAPDFS [FAM92A_Y226_R222Q_YF], for which the enrichment score with SHP2 C-SH2 domain E139D was inactive: 1.03; in assay [1] it was inactive: 0.946; in the assay with SHP2 N-SH2 domain L43F it was inactive: 1.04; with SHP2 N-SH2 domain T42A, inactive: 0.963; with SHP2 N-SH2 domain T52S, inactive: 1.14; in assay [2], inactive: 1.05.

As to LQEQNYLAVDS [FAM114A1_Y115], the enrichment score in the assay with SHP2 C-SH2 domain E139D was inactive: 0.547; in assay [1], inactive: 0.773; in the assay with SHP2 N-SH2 domain L43F it was inactive: 1.17; with SHP2 N-SH2 domain T42A, inactive: 1.31; in the assay with SHP2 N-SH2 domain T52S, inactive: 0.704; in assay [2], inactive: 0.706.

As for ENFDDYMKEVG [FABP4_Y20], the enrichment score was inactive: 0.961 in the assay with SHP2 C-SH2 domain E139D; inactive: 0.672 in assay [1]; inactive: 0.604 with SHP2 N-SH2 domain L43F; inactive: 0.758 in the assay with SHP2 N-SH2 domain T42A; inactive: 0.612 with SHP2 N-SH2 domain T52S; inactive: 0.89 in assay [2].

Regarding SCPANYFAFKI [FAM3D_Y65_P60S], the enrichment score with SHP2 C-SH2 domain E139D is inactive: 1.56; in assay [1], inactive: 1.5; with SHP2 N-SH2 domain L43F it was inactive: 1.72; in the assay with SHP2 N-SH2 domain T42A, inactive: 1.23; with SHP2 N-SH2 domain T52S, inactive: 1.56; in assay [2] it was inactive: 1.46.

Take EEDPEYKKKFR [FAM161A_Y278]: the enrichment score in the assay with SHP2 C-SH2 domain E139D was inactive: 0.794; in assay [1], inactive: 0.539; in the assay with SHP2 N-SH2 domain L43F it was inactive: 0.655; in the assay with SHP2 N-SH2 domain T42A it was inactive: 0.52; with SHP2 N-SH2 domain T52S it was inactive: 0.62; in assay [2] it was inactive: 0.635.

For AESPEHVHMFT [FAM111A_Y511_Y511H_YF], the enrichment score with SHP2 C-SH2 domain E139D was inactive: 0.957; in assay [1], inactive: 0.966; with SHP2 N-SH2 domain L43F it was inactive: 1.03; with SHP2 N-SH2 domain T42A, inactive: 0.846; with SHP2 N-SH2 domain T52S, inactive: 0.937; in assay [2], inactive: 1.1.

Take DEYLEHRRIVG [FAM221A_Y20_Y20H]: the enrichment score was inactive: 0.701 in the assay with SHP2 C-SH2 domain E139D; inactive: 0.778 in assay [1]; inactive: 0.534 in the assay with SHP2 N-SH2 domain L43F; inactive: 0.78 with SHP2 N-SH2 domain T42A; inactive: 0.646 in the assay with SHP2 N-SH2 domain T52S; inactive: 0.69 in assay [2].

On to DLVLQYLRVPL [F9_Y371_A366D], for which the enrichment score with SHP2 C-SH2 domain E139D was inactive: 1.98; in assay [1] it was inactive: 1.77; in the assay with SHP2 N-SH2 domain L43F it was inactive: 2.34; with SHP2 N-SH2 domain T42A, inactive: 2.48; with SHP2 N-SH2 domain T52S, inactive: 2.31; in assay [2], inactive: 2.08.

On to LTMAPYSSVSV [FAM81A_Y24_L29V], for which the enrichment score with SHP2 C-SH2 domain E139D is inactive: 0.925; in assay [1], inactive: 2.19; with SHP2 N-SH2 domain L43F, inactive: 1.58; with SHP2 N-SH2 domain T42A it was inactive: 2.82; with SHP2 N-SH2 domain T52S it was inactive: 1.56; in assay [2] it was inactive: 0.972.

For PIGRKYKKVRF [F8_Y442_R437P], the enrichment score was inactive: 0.242 with SHP2 C-SH2 domain E139D; inactive: 0.346 in assay [1]; inactive: 0.498 with SHP2 N-SH2 domain L43F; inactive: 0.296 with SHP2 N-SH2 domain T42A; inactive: 0.26 with SHP2 N-SH2 domain T52S; inactive: 0.203 in assay [2].
